Screen size: about 190,000 compounds; about 270 (0.14%) were called active. The shares of active, inactive and inconclusive entries below differ from those in the screen.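 The calls were made as follows: active = GTP binding activity at least 20% away from the 100% baseline, either lowered as inhibitor or raised as activator; inconclusive = flagged as likely green fluorescent, judged across all proteins in the well; inactive = the rest.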
The molecules below were run against GTPase HRas (Homo sapiens) (UniProt P01112) (assay: HRas wt fluorescent GTP binding changes, either direction – biochemical, wildtype, bead-based flow cytometry, multiplex, primary screen (AID 759;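 also: 0% = unlabeled GTP competition control and 100% = no-compound control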)). Conditions: GST-Ras wt beads, Bodipy-FL-GTP binding, at 10 µM, actives lie on both sides.
Chain of UniProt P01112 (P01112 whole entry, looked up): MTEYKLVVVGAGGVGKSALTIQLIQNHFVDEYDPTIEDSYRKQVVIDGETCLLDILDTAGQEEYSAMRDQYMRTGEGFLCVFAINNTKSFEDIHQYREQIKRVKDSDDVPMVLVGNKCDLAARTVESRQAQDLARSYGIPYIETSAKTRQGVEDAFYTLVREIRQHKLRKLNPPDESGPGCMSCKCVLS
For `CC(=O)c1sc(NC(=O)C(C)C)nc1C`, the GTP binding activity was inconclusive: 103%.
`CC(=O)Nc1nonc1-c1nc2ccccc2n1Cc1nnc(C)o1` was tested, and the GTP binding activity was inconclusive: 104%.
In the case of `O=C(Nc1cccc(Cl)c1)N1CCN(c2ncccn2)CC1`, the GTP binding activity was inactive: 109%.
`Cc1ccc(NC(=O)c2ccc3c(c2)C(=O)N(CC2CCCO2)C3=O)cc1C` (centres undefined) was tested, and the GTP binding activity was inconclusive: 94%.
For `Cc1ccc(C2C(C=Nc3c(C)n(C)n(-c4ccccc4)c3=O)=C(c3ccccc3)Oc3ccccc32)cc1` (centres undefined), the GTP binding activity was inactive: 101%.
In the case of `Cc1c(Br)c(C(F)(F)F)nn1CC(=O)N1CCCC1`, the GTP binding activity was inconclusive: 91%.
With `Cc1ccc(S(=O)(=O)n2nc(OC(=O)C3CCCCC3)cc2N)cc1` the GTP binding activity was inconclusive: 105%.
In the case of `CN1C(=O)c2ccccc2C(C(=O)NCCCN2CCCC2)C1c1c[nH]c2ccccc12` (centres undefined), the GTP binding activity was inconclusive: 107%.
In the case of `CC(C)CCOc1cccc(OCC(=O)O)c1`, the GTP binding activity was inconclusive: 454%.
For `O=C(CSc1nnc(-c2ccncc2)n1Cc1ccco1)c1ccc(Cl)cc1`, the GTP binding activity was inconclusive: 103%.
With `Cc1ccc(-n2cccc2/C=C2\C(=N)N3N=C(c4ccco4)SC3=NC2=O)cc1` the GTP binding activity was inconclusive: 89%.
In the case of `Cc1cc2cc(C)c3nnc(SCC(=O)NCc4ccc5c(c4)OCO5)n3c2cc1C`, the GTP binding activity was inconclusive: 93%.
`COC(=O)c1cccc(C(=O)N2CCCC(C(=O)c3cc(F)ccc3F)C2)c1` (centres undefined) was tested, and the GTP binding activity was inactive: 99%.
In the case of `C/C(=N\NC(=O)OC(C)(C)C)c1ccc(-n2ccnc2)cc1`, the GTP binding activity was inconclusive: 99%.
For `CCN(CC(=O)Nc1ccccc1OC)CC(=O)Nc1sccc1C#N`, the GTP binding activity was inactive: 98%.
With `CC[C@@H](C)[C@H](NC(=O)C1CCN(C(=O)[C@@H](NS(=O)(=O)c2ccc(C)cc2)C(C)C)CC1)C(=O)O` the GTP binding activity was inconclusive: 105%.
With `CCC(C)NC(=O)CN(C)S(=O)(=O)c1ccc2c(c1)c(=O)n(C)c(=O)n2C` (centres undefined) the GTP binding activity was inconclusive: 102%.
For `COc1ccc(C2=NOC(C(=O)NCc3ccco3)C2)cc1OC` (centres undefined), the GTP binding activity was inconclusive: 95%.
For `CCOc1ccccc1NC(=S)NCC1CCCO1` (centres undefined), the GTP binding activity was inactive: 99%.
In the case of `O=C(CN1C(=O)C2C3C=CC(C3)C2C1=O)NC1CCCc2ccccc21` (centres undefined), the GTP binding activity was inconclusive: 107%.
For `COc1ccc(/C(C)=N/NC(=O)c2sccc2-n2cccc2)cc1`, the GTP binding activity was inactive: 102%.
In the case of `Cc1cccc(NC(=O)Nc2cc(C)cc(C)n2)c1`, the GTP binding activity was inactive: 102%.
In the case of `c1ccc2oc(-c3ccc(Nc4nc(N5CCCCC5)nc(N5CCOCC5)n4)cc3)nc2c1`, the GTP binding activity was inconclusive: 93%.
For `O=c1oc2ccc3ccccc3c2cc1-c1nnc(-c2cccs2)o1`, the GTP binding activity was inconclusive: 94%.
`COc1ccc(CCNC(=O)CCCCCNc2nc(=S)[nH]c3ccccc23)cc1OC` was tested, and the GTP binding activity was inactive: 94%.
In the case of `CS(=O)(=O)c1ccc(C(=O)OCc2nnc(-c3ccc(Cl)cc3)o2)cc1[N+](=O)[O-]`, the GTP binding activity was inactive: 90%.
With `CC1CC(NC(=O)C2(C)CC2(Cl)Cl)CC(C)(C)C1` (centres undefined) the GTP binding activity was inconclusive: 104%.
With `CN(C)S(=O)(=O)Nc1ccccc1F` the GTP binding activity was inconclusive: 95%.
`Cc1cccc(NC(=O)COC(=O)c2cccc3c2C(=O)c2ccccc2C3=O)c1C` was tested, and the GTP binding activity was inconclusive: 94%.
For `COC(=O)c1cc(C(=O)OCC(=O)N(C)C2CCS(=O)(=O)C2)cc([N+](=O)[O-])c1` (centres undefined), the GTP binding activity was inconclusive: 95%.
With `CCOC(=O)c1c(NC(=O)COC(=O)c2ccc(O)cc2)sc(C(=O)N(C)C)c1C` the GTP binding activity was inconclusive: 89%.
With `O=C(CSc1nnc(SCc2ccccc2)s1)N/N=C/c1c(Cl)cccc1Cl` the GTP binding activity was inconclusive: 98%.
In the case of `COc1ccc(NC(=O)CSc2n[nH]c(C)c2[N+](=O)[O-])cc1`, the GTP binding activity was inconclusive: 92%.
For `O=[N+]([O-])c1cc2oc3c(c2c(C=NCc2ccccc2)c1O)CCCC3`, the GTP binding activity was active: 79%.
`O=C(c1cc2nc(-c3ccco3)cc(C(F)(F)F)n2n1)N1CCCc2ccccc21` was tested, and the GTP binding activity was inconclusive: 90%.
In the case of `CCOC(=O)N1CCC(N2C(=O)c3ccccc3C2Nc2ccc(S(=O)(=O)N(CC)CC)cc2)CC1` (centres undefined), the GTP binding activity was inactive: 97%.
For `O=C(c1ccc2c(c1)OCO2)N1CCN(c2ncccn2)CC1`, the GTP binding activity was inconclusive: 101%.
With `COc1cccc(/C(O)=C/c2nc3ccc(C(=O)NCCc4ccc(Cl)cc4)cc3[nH]c2=O)c1` the GTP binding activity was inconclusive: 104%.
With `CN(Cc1ccccc1)C(=O)CCC(=O)N(C)Cc1ccccc1` the GTP binding activity was inconclusive: 102%.
For `CCOC(=O)c1c(NC(=O)c2ccnn2C)sc(C)c1C`, the GTP binding activity was inactive: 104%.
With `CC(=O)Nc1ccc(N2CCCC2)cc1` the GTP binding activity was inconclusive: 104%.
With `CCOc1ccc(NC(=O)c2ccco2)c([N+](=O)[O-])c1` the GTP binding activity was inconclusive: 101%.
For `COc1ccc2c(CC(=O)OCC(=O)Nc3ccccc3[N+](=O)[O-])coc2c1`, the GTP binding activity was inconclusive: 94%.
In the case of `O=C1C2C3C=CC(C4CC34)C2C(=O)N1/N=C/c1cccs1` (centres undefined), the GTP binding activity was inactive: 98%.
`COCc1cc(C)nc(N/N=C/c2ccc(-c3ccc(C(=O)O)c(Cl)c3)o2)c1C#N` was tested, and the GTP binding activity was active: 78%.
In the case of `CSc1nc2ccccc2cc1/C=C(\C#N)c1ccc(Cl)c(Cl)c1`, the GTP binding activity was inconclusive: 94%.
`COc1ccc(OC)c(NC(=O)c2ccno2)c1` was tested, and the GTP binding activity was inactive: 98%.
For `O=[N+]([O-])c1cc(Cc2ccccc2)cc(C=Nc2ccc(N3CCOCC3)cc2)c1O`, the GTP binding activity was active: 77%.
`O=C1N(Cc2cccnc2)C[C@@H]2C[C@@H](c3ccc4nsnc4c3)N3CCC[C@@]123` was tested, and the GTP binding activity was inactive: 97%.
With `CC(=O)C(Sc1ncnc2sc3c(c12)CCCC3)C(C)=O` the GTP binding activity was inconclusive: 96%.
For `Cc1sc(NC(=O)/C=C/c2ccc(C(C)C)cc2)c(C#N)c1C`, the GTP binding activity was inconclusive: 98%.
With `COc1cccc(CNC(=O)C2CCN(S(=O)(=O)c3ccc4c(c3)CCC(=O)N4)CC2)c1` the GTP binding activity was inconclusive: 88%.
In the case of `O=C(Cn1cnc2ccccc2c1=O)NCCC(=O)Nc1ccc2c(c1)OCCO2`, the GTP binding activity was inconclusive: 104%.
With `COc1ccccc1-n1cc([C@@H]2C[C@H]3CN(c4ccccc4)C(=O)[C@]34CCCN24)cn1` the GTP binding activity was inconclusive: 135%.
`CCNC(=O)COC(=O)c1ccc(S(=O)(=O)N2CCCCCC2)cc1` was tested, and the GTP binding activity was inconclusive: 107%.
In the case of `Cc1nn(Cc2ccccc2)c(Cl)c1C(=O)OC(C)C#N` (centres undefined), the GTP binding activity was inactive: 94%.
`COc1ccc(OC)c(NC(=O)CN(C)S(=O)(=O)c2ccc(Cl)cc2)c1` was tested, and the GTP binding activity was inactive: 96%.
In the case of `COc1ccc(NC(=O)c2cc3c(=O)n4ccccc4nc3n2C)cc1OC`, the GTP binding activity was inactive: 97%.
For `CCOc1cc(/C=C2\C(=O)N(Cc3ccc(C)cc3)C(C)=C2C(=O)OC)ccc1O`, the GTP binding activity was inconclusive: 106%.
In the case of `Cc1nn(C)cc1/C=N/NC(=O)c1ccc2c(c1)OCO2`, the GTP binding activity was inconclusive: 107%.
For `CCCn1c(=N)c(C(=O)NCc2ccc3c(c2)OCO3)cc2c(=O)n3cccc(C)c3nc21`, the GTP binding activity was inconclusive: 83%.
With `Cc1ccc(-c2nn(-c3ccccc3)cc2NC(=O)CCl)cc1` the GTP binding activity was inactive: 93%.
In the case of `COc1ccc(CN(CC2CCCO2)C(=O)c2cc3sccc3n2C)c(OC)c1` (centres undefined), the GTP binding activity was inactive: 99%.
With `CCOc1ccc(NC(=O)NC(C)CC)cc1` (centres undefined) the GTP binding activity was inconclusive: 96%.
With `COc1ccccc1-c1ccc(SCC(=O)NCCc2ccccc2)nn1` the GTP binding activity was inconclusive: 91%.
`O=C(Nc1c(F)cc(F)cc1Br)c1ccco1` was tested, and the GTP binding activity was inconclusive: 103%.
In the case of `COc1cc2c(cc1NC(=O)CN1CCN(S(=O)(=O)c3ccc(F)cc3)CC1)oc1ccccc12`, the GTP binding activity was inconclusive: 105%.
`CN(C)/C=C(\C#N)C(N)=C(C#N)C#N` was tested, and the GTP binding activity was inconclusive: 78%.
`COc1ccc(C(=O)N/N=c2\oc3ccccc3cc2C(N)=O)cc1` was tested, and the GTP binding activity was inconclusive: 79%.
In the case of `Cc1[nH]c2ccccc2c1C(=O)COC(=O)Cn1c(C(F)(F)F)nc2ccccc21`, the GTP binding activity was inconclusive: 104%.
For `COCCCNC(=O)c1cc2c(-c3ccc(Cl)cc3)nn(C)c2s1`, the GTP binding activity was inconclusive: 88%.
`COc1cccc(/C=N/NC(=O)c2[nH]c(C)c(C(=O)N/N=C/c3cccc(OC)c3)c2C)c1` was tested, and the GTP binding activity was inconclusive: 93%.
In the case of `Cc1cc(Oc2ccccc2)nc(SCC(=O)Nc2ccc(Cl)cc2Cl)n1`, the GTP binding activity was inconclusive: 103%.
`CCOc1cc(/C=C2/NC(=O)N(CC(=O)Nc3cccc(C)c3)C2=O)ccc1OCC(N)=O` was tested, and the GTP binding activity was inconclusive: 93%.
`COc1cc(OC)c(S(=O)(=O)N2CCCCC2)cc1S(=O)(=O)N1CCCCC1` was tested, and the GTP binding activity was inconclusive: 102%.
With `CCOC(=O)c1ccc(NC(=O)c2ccccc2[N+](=O)[O-])cc1` the GTP binding activity was inactive: 100%.
For `O=S(=O)(/C=C/c1ccccc1)N1CCN(Cc2ccc3c(c2)OCO3)CC1`, the GTP binding activity was inconclusive: 90%.
In the case of `COc1ccc(S(=O)(=O)N2CCC(C(=O)N3CCc4ccccc4C3)CC2)cc1C`, the GTP binding activity was inconclusive: 92%.
With `O=S(=O)(c1ccc2nc(-c3ccco3)c(-c3ccco3)nc2c1)N1CCOCC1` the GTP binding activity was inconclusive: 93%.
`Cc1ccc(/C=N/NC(=O)c2ccc(Cn3cc([N+](=O)[O-])cn3)o2)cc1` was tested, and the GTP binding activity was inactive: 99%.
In the case of `Cc1cc(C)nc(Nc2ncc(O)n2-c2ccc(C)c(C)c2)n1`, the GTP binding activity was inconclusive: 98%.
In the case of `CC1CC(NS(=O)(=O)c2cccs2)CC(C)(C)C1` (centres undefined), the GTP binding activity was inconclusive: 99%.
In the case of `COc1ccc(Cn2nc(-c3ccccc3)c(N3CCCCC3)cc2=O)cc1`, the GTP binding activity was inconclusive: 93%.
`Clc1ccc(CN(Cc2ccc(Cl)cc2)c2nn[nH]n2)cc1` was tested, and the GTP binding activity was inactive: 87%.
`O=C(NCC1CCCN(C(=O)NCc2ccccc2)C1)c1ccc2c(c1)OCO2` (centres undefined) was tested, and the GTP binding activity was inactive: 95%.
`CC(=O)c1ccc(OCC(O)CN2CCN(CCO)CC2)cc1` (centres undefined) was tested, and the GTP binding activity was inactive: 102%.
For `Cc1sc2c(c1C)c(=O)nc1n2Cc2ccccc2-1`, the GTP binding activity was inconclusive: 86%.
For `Cc1cc(=O)[nH]c(-c2ccccc2O)n1`, the GTP binding activity was inconclusive: 102%.
`CCOC(=O)c1c(NC(=O)CSc2nnc(Cc3ccccc3)o2)sc(C(C)=O)c1C` was tested, and the GTP binding activity was inactive: 103%.

From PubChem BioAssay AID759 (NMMLSC, 2007)
